The target of this assay is T1, human M2 receptor (Homo sapiens, UniProt P08172).
T1 sequence (P08172 1-466): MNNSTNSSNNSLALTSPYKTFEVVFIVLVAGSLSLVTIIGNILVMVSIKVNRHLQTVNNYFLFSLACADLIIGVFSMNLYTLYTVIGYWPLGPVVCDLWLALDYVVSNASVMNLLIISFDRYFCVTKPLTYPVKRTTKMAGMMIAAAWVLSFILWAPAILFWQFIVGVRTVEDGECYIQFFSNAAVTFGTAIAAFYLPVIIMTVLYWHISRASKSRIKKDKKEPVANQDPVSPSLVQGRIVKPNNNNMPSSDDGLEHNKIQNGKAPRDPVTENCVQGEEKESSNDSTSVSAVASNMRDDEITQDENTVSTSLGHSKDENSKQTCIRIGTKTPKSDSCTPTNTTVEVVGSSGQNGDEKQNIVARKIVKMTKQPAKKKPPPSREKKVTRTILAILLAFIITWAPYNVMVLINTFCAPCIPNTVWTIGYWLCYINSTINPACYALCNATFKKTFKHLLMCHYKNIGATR
Conditions: read-out: Efficiency, M2-GIRK1/4 activation test; boosting of the acetylcholine effect at an EC20 acetylcholine concentration.

For the compound `C[C@H](NC(=O)c1cn(-c2c(F)cc(F)cc2Cl)c2nc(N3CCC(C)(C)C3=O)ccc2c1=O)C(F)(F)F` [Example 335, 1-(2-Chloro-4,6-difluorophenyl)-7-(3,3-dimethyl-2-oxopyrrolidin-1-yl)-4-oxo-N-[(2S)-1,1,1-trifluoropropan-2-yl]-1,4-dihydro-1,8-naphthyridine-3-carboxamide], the Emax turned out to be 94.5%. To `CC[C@H](NC(=O)c1cn(-c2c(F)cc(F)cc2Cl)c2nc(N3CCC(C)(C)C3=O)ccc2c1=O)C(F)(F)F` [Example 336, 1-(2-Chloro-4,6-difluorophenyl)-7-(3,3-dimethyl-2-oxopyrrolidin-1-yl)-4-oxo-N-[(2S)-1,1,1-trifluorobutan-2-yl]-1,4-dihydro-1,8-naphthyridine-3-carboxamide] belongs 92%. To `CC[C@@H](NC(=O)c1cn(-c2ccc(F)cc2F)c2nc(N3CCCC3=O)ccc2c1=O)C(F)(F)F` [Example 337, 1-(2,4-Difluorophenyl)-4-oxo-7-(2-oxopyrrolidin-1-yl)-N-[(2R)-1,1,1-trifluorobutan-2-yl]-1,4-dihydro-1,8-naphthyridine-3-carboxamide] belongs 68%; to `O=C(N[C@@H](C1CC1)C(F)(F)F)c1cn(-c2c(F)cc(F)cc2Cl)c2nc(N3C[C@@H](O)CC3=O)ccc2c1=O` [Example 338, 1-(2-Chloro-4,6-difluorophenyl)-N-[(1 S)-1-cyclopropyl-2,2,2-trifluoroethyl]-7-[(4S)-4-hydroxy-2-oxopyrrolidin-1-yl]-4-oxo-1,4-dihydro-1,8-naphthyridine-3-carboxamide], 99%. To `C[C@@H](COC(F)(F)F)NC(=O)c1cn(-c2c(F)cc(F)cc2F)c2nc(N3C[C@@H](O)CC3=O)ccc2c1=O` [Example 339, 7-[(4S)-4-Hydroxy-2-oxopyrrolidin-1-yl]-4-oxo-N-[(2S)-1-(trifluoromethoxy)propan-2-yl]-1-(2,4,6-trifluorophenyl)-1,4-dihydro-1,8-naphthyridine-3-carboxamide] belongs 94%. On to `CC[C@H](NC(=O)c1cn(-c2c(F)cc(F)cc2Cl)c2nc(N3CCNC3=O)ccc2c1=O)C(F)(F)F` [Example 340, 1-(2-Chloro-4,6-difluorophenyl)-4-oxo-7-(2-oxoimidazolidin-1-yl)-N-[(2S)-1,1,1-trifluorobutan-2-yl]-1,4-dihydro-1,8-naphthyridine-3-carboxamide], for which the Emax turned out to be 100%. On to `C[C@H](NC(=O)c1cn(-c2c(F)cc(F)cc2F)c2nc(N3CCNC3=O)ccc2c1=O)C(F)(F)F` [Example 341, 4-Oxo-7-(2-oxoimidazolidin-1-yl)-1-(2,4,6-trifluorophenyl)-N-[(2S)-1,1,1-trifluoropropan-2-yl]-1,4-dihydro-1,8-naphthyridine-3-carboxamide], for which the Emax turned out to be 86%.

For the compound `O=C(N[C@H](C1CC1)C(F)(F)F)c1cn(-c2c(F)cc(F)cc2F)c2nc(N3CCNC3=O)ccc2c1=O` [Example 342, N-[(1R)-1-Cyclopropyl-2,2,2-trifluoroethyl]-4-oxo-7-(2-oxoimidazolidin-1-yl)-1-(2,4,6-trifluorophenyl)-1,4-dihydro-1,8-naphthyridine-3-carboxamide], the Emax came to 93.7%.

Regarding `CC[C@H](NC(=O)c1cn(-c2c(F)cc(F)cc2F)c2nc(N3CCNC3=O)ccc2c1=O)C(F)(F)F` [Example 343, 4-Oxo-7-(2-oxoimidazolidin-1-yl)-N-[(2S)-1,1,1-trifluorobutan-2-yl]-1-(2,4,6-trifluorophenyl)-1,4-dihydro-1,8-naphthyridine-3-carboxamide], the Emax came out at 90.5%. The figure for `CC[C@@H](NC(=O)c1cn(-c2ccc(F)cc2F)c2nc(N3CCCN(CC)C3=O)ccc2c1=O)C(F)(F)F` [Example 344, 1-(2,4-Difluorophenyl)-7-(3-ethyl-2-oxotetrahydropyrimidin-1(2H)-yl)-4-oxo-N-[(2R)-1,1-trifluorobutan-2-yl]-1,4-dihydro-1,8-naphthyridine-3-carboxamide] is 95.5%; for `O=C(N[C@@H](C1CC1)C(F)(F)F)c1cn(-c2c(F)cccc2F)c2nc(N3C[C@@H](O)[C@H](O)C3)ccc2c1=O` [Example 345, N-[(1 S)-1-Cyclopropyl-2,2,2-trifluoroethyl]-1-(2,6-difluorophenyl)-7-[(3R,4R)-3,4-dihydroxypyrrolidin-1-yl]-4-oxo-1,4-dihydro-1,8-naphthyridine-3-carboxamide] it is 100%. As to `CC[C@H](NC(=O)c1cn(-c2c(F)cccc2Cl)c2nc(N3C[C@@H](O)[C@H](O)C3)ccc2c1=O)C(F)(F)F` [Example 346, 1-(2-Chloro-6-fluorophenyl)-7-[(3R,4R)-3,4-dihydroxypyrrolidin-1-yl]-4-oxo-N-[(2S)-1,1-trifluorobutan-2-yl]-1,4-dihydro-1,8-naphthyridine-3-carboxamide], the Emax was found to be 96%. The figure for `O=C(N[C@@H](C1CC1)C(F)(F)F)c1cn(-c2c(F)cccc2Cl)c2nc(N3C[C@@H](O)[C@H](O)C3)ccc2c1=O` [Example 347, 1-(2-Chloro-6-fluorophenyl)-N-[(1 S)-1-cyclopropyl-2,2,2-trifluoroethyl]-7-[(3R,4R)-3,4-dihydroxypyrrolidin-1-yl]-4-oxo-1,4-dihydro-1,8-naphthyridine-3-carboxamide] is 92.5%; for `CC[C@H](NC(=O)c1cn(-c2c(F)cccc2F)c2nc(N3C[C@@H](O)[C@H](O)C3)ccc2c1=O)C(F)(F)F` [Example 348, 1-(2,6-Difluorophenyl)-7-[(3R,4R)-3,4-dihydroxypyrrolidin-1-yl]-4-oxo-N-[(2S)-1,1,1-trifluorobutan-2-yl]-1,4-dihydro-1,8-naphthyridine-3-carboxamide] it is 100%; for `O=C(NC1(C(F)(F)F)CCCC1)c1cn(-c2c(F)cc(F)cc2F)c2nc(N3C[C@@H](O)[C@H](O)C3)ccc2c1=O` [Example 350, 7-[(3R,4R)-3,4-Dihydroxypyrrolidin-1-yl]-4-oxo-N-[1-(trifluoromethyl)cyclopentyl]-1-(2,4,6-trifluorophenyl)-1,4-dihydro-1,8-naphthyridine-3-carboxamide] it is 98.5%. In the case of `CC[C@H](NC(=O)c1cn(-c2c(F)cccc2Cl)c2nc(N3C[C@@H](O)CC3=O)ccc2c1=O)C(F)(F)F` [Example 351, 1-(2-Chloro-6-fluorophenyl)-7-[(4S)-4-hydroxy-2-oxopyrrolidin-1-yl]-4-oxo-N-[(2S)-1,1,1-trifluorobutan-2-yl]-1,4-dihydro-1,8-naphthyridine-3-carboxamide], the Emax is 100%. To `O=C(N[C@@H](C1CC1)C(F)(F)F)c1cn(-c2c(F)cccc2Cl)c2nc(N3C[C@@H](O)CC3=O)ccc2c1=O` [Example 352, 1-(2-Chloro-6-fluorophenyl)-N-[(1S)-1-cyclopropyl-2,2,2-trifluoroethyl]-7-[(4S)-4-hydroxy-2-oxopyrrolidin-1-yl]-4-oxo-1,4-dihydro-1,8-naphthyridine-3-carboxamide] belongs 100%. To `C[C@@H](COC(F)(F)F)NC(=O)c1cn(-c2c(F)cc(F)cc2F)c2nc(N3C[C@@H](O)[C@H](O)C3)ccc2c1=O` [Example 353, 7-[(3R,4R)-3,4-Dihydroxypyrrolidin-1-yl]-4-oxo-N-[(2S)-1-(trifluoromethoxy)propan-2-yl]-1-(2,4,6-trifluorophenyl)-1,4-dihydro-1,8-naphthyridine-3-carboxamide] belongs 99%. To `CC[C@@H](NC(=O)c1cn(-c2ccc(F)cc2F)c2nc(N3CCC4CC4(O)C3)ccc2c1=O)C(F)(F)F` (stereo partly drawn) [Example 354, 1-(2,4-Difluorophenyl)-7-[1-hydroxy-3-azabicyclo[4.1.0]hept-3-yl]-4-oxo-N-[(2R)-1,1,1-trifluorobutan-2-yl]-1,4-dihydro-1,8-naphthyridine-3-carboxamide] belongs 93%; to `CC[C@@H](NC(=O)c1cn(-c2ccc(F)cc2F)c2nc(N3CC(O)C4(CC4)C3)ccc2c1=O)C(F)(F)F` (stereo partly drawn) [Example 355, 1-(2,4-Difluorophenyl)-7-[7-hydroxy-5-azaspiro[2.4]hept-5-yl]-4-oxo-N-[(2R)-1,1,1-trifluorobutan-2-yl]-1,4-dihydro-1,8-naphthyridine-3-carboxamide], 99.5%. With `CC[C@@H](NC(=O)c1cn(-c2ccc(F)cc2F)c2nc(N3CC(O)C(C)(C)C3)ccc2c1=O)C(F)(F)F` (stereo partly drawn) [Example 356, 1-(2,4-Difluorophenyl)-7-[4-hydroxy-3,3-dimethylpyrrolidin-1-yl]-4-oxo-N-[(2R)-1,1,1-trifluorobutan-2-yl]-1,4-dihydro-1,8-naphthyridine-3-carboxamide], the Emax amounted to 92.5%.

For `CC(C)(C)[C@@H](NC(=O)c1cn(-c2c(F)cc(F)cc2F)c2nc(N3C[C@@H](O)CC3=O)ccc2c1=O)C(F)(F)F` [Example 357, 7-[(4S)-4-Hydroxy-2-oxopyrrolidin-1-yl]-4-oxo-N-[(2R)-1,1,1-trifluoro-3,3-dimethylbutan-2-yl]-1-(2,4,6-trifluorophenyl)-1,4-dihydro-1,8-naphthyridine-3-carboxamide], the Emax amounted to 100%. To `O=C(NC12CC(C1)C2)c1cn(-c2c(F)cc(F)cc2F)c2nc(N3C[C@@H](O)CC3=O)ccc2c1=O` [Example 358, N-(Bicyclo[1.1.1]pent-1-yl)-7-[(4S)-4-hydroxy-2-oxopyrrolidin-1-yl]-4-oxo-1-(2,4,6-trifluorophenyl)-1,4-dihydro-1,8-naphthyridine-3-carboxamide] belongs 95%.
